Results published in the RNAGym collection of RNA variant scans (doi:10.1093/nar/gkz1192).
Read counts are not given, so values of variants with three or more changes are uncertain.

B1: CPEB3 Ribozyme (parent)
chain: UAACAGGGGGCCACAGCAGAAGCGUUCACGUCGCAGCCCCUGUCAGAUUCUGGUGAAUCUGCGAAUUCUGCUGUAUAUCUC

Variants of: B1
Assay: self-cleavage, relative activity (ratio to wild type); higher = more cleavage; in vitro, sequencing
Outline: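 After error-prone PCR and barcoding, CPEB3 ribozyme mutant libraries were transcribed with T7 RNA polymerase at 37°C for 5 hours, then given 15 min with DNase I before an EDTA stop, and they cleaved during both steps. Reverse transcription with template switching preceded Illumina sequencing. Relative activity divides a variant's cleaved/total read fraction by the unmutated ribozyme's. At least 5 reads were required per variant, and three batches were averaged.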
In the case of C29U U51C U78C U80C, the self-cleavage is reported as 0.23.
For C29U U54A U78C C81A, the self-cleavage was 0.56.
With C29U U58C U67A A75U the self-cleavage was 0.09.
C29U U58C U74C U76C gave a self-cleavage of 0.58.
C29U U60C U66C showed a self-cleavage of 0.12.
In the case of C29U U66C U69C, the self-cleavage is reported as 0.11.
Variant C29U U67C U78C has a self-cleavage of 0.09.
In the case of G30A A35G U72A, the self-cleavage is reported as 0.11.
For G30A A35U U48C U54A A57G U58A, the self-cleavage was 0.08.
G30A A35U U67C U69C showed a self-cleavage of 0.06.
G30A A45C U67C showed a self-cleavage of 0.1.
For G30A A45C U69C, the self-cleavage was 0.12.
In the case of G30A A45G A57U U80C, the self-cleavage is reported as 0.07.
In the case of G30A A45G U54A U67C U72C, the self-cleavage is reported as 0.11.
Variant G30A A45G U54G U66C has a self-cleavage of 0.07.
Variant G30A A45G U67A has a self-cleavage of 0.12.
G30A A45U A64G gave a self-cleavage of 0.19.
In the case of G30A A45U U48G A75G, the self-cleavage is reported as 0.
With G30A A56C U74A the self-cleavage was 0.09.
For G30A A56G A64G, the self-cleavage was 0.17.
In the case of G30A A64C A77U, the self-cleavage is reported as 0.14.
With G30A A65U A77G the self-cleavage was 0.14.
In the case of G30A A77U U80A, the self-cleavage is reported as 0.16.
Variant G30A C32A A45U has a self-cleavage of 0.12.
Work on G30A C34A U41C yielded a self-cleavage of 0.26.
Variant G30A C34G C44U A64G U69A G73A has a self-cleavage of 0.06.
Work on G30A C34G U72C A75G yielded a self-cleavage of 0.13.
Work on G30A C37U U43C yielded a self-cleavage of 0.16.
G30A C38A A65C showed a self-cleavage of 0.12.
For G30A C38A G61A A65U, the self-cleavage was 0.1.
G30A C38A U41A A56U gave a self-cleavage of 0.12.
G30A C40A U51C showed a self-cleavage of 0.13.
In the case of G30A C40U U49C U67C, the self-cleavage is reported as 0.09.
For G30A C50A U51C U54C U72C, the self-cleavage was 0.08.
G30A C62A U69C showed a self-cleavage of 0.16.
For G30A C71A U72C U74C, the self-cleavage was 0.06.
For G30A G36A U41C U51C U72A, the self-cleavage was 0.1.
With G30A G52A U54C U67C U69C U80C the self-cleavage was 0.09.
G30A U31A A56G showed a self-cleavage of 0.18.
Work on G30A U31A C40A U41C yielded a self-cleavage of 0.43.
Variant G30A U31A U54C U67C has a self-cleavage of 0.09.
With G30A U31A U80A the self-cleavage was 0.42.
In the case of G30A U31C A45G C71G, the self-cleavage is reported as 0.15.
G30A U31C A75U U78C gave a self-cleavage of 0.21.
For G30A U31C C38G C59A, the self-cleavage was 0.12.
With G30A U41C U49C U78C the self-cleavage was 0.07.
With G30A U41C U54C U58A U69A the self-cleavage was 0.11.
G30A U43C A56U U72C gave a self-cleavage of 0.24.
In the case of G30A U43C G52U A65G C79U, the self-cleavage is reported as 0.08.
Variant G30A U43G U72G A77G has a self-cleavage of 0.05.
Variant G30A U48C U51C has a self-cleavage of 0.26.
With G30A U48C U69C the self-cleavage was 0.18.
Variant G30A U49C A56G U60C has a self-cleavage of 0.56.
Variant G30A U49C A65G has a self-cleavage of 0.13.
In the case of G30A U51G A64U A65G, the self-cleavage is reported as 0.22.
For G30A U54A A56G U78C, the self-cleavage was 0.07.
G30A U54G A56U showed a self-cleavage of 0.14.
For G30A U69C U72G, the self-cleavage was 0.06.
Work on G30A U72C U74C yielded a self-cleavage of 0.1.
G30A U76C U80A showed a self-cleavage of 0.19.
For G30C A45C U51C U54A U74A, the self-cleavage was 0.08.
In the case of G30C A45U U51C U58A U72C, the self-cleavage is reported as 0.29.
Work on G30C A56G A75G A77G yielded a self-cleavage of 0.06.
In the case of G30C G46C A57U G63A, the self-cleavage is reported as 0.14.
Variant G30C U31A G33A U43C G52C G55C has a self-cleavage of 0.07.
G30C U31C U58C U80C showed a self-cleavage of 0.2.
G30C U31C U60A showed a self-cleavage of 0.22.
Work on G30C U31C U66C yielded a self-cleavage of 0.18.
With G30C U43C A56G U69C U72G the self-cleavage was 0.05.
Variant G30C U48C A57G has a self-cleavage of 0.13.
With G30C U51A U69A the self-cleavage was 0.26.
G30C U54A U67A showed a self-cleavage of 0.18.
G30U A35U C39G U43C G53C U78C showed a self-cleavage of 0.05.
G30U A35U G52U U69A showed a self-cleavage of 0.07.
G30U A45G A64G gave a self-cleavage of 0.17.
Variant G30U A45G A75G has a self-cleavage of 0.04.
With G30U A45U A75U the self-cleavage was 0.1.
With G30U A57U C59A the self-cleavage was 0.05.
For G30U A64G U72G, the self-cleavage was 0.12.
Variant G30U A65G U72C has a self-cleavage of 0.12.
G30U C34U A35G A47G showed a self-cleavage of 0.07.
With G30U C38A U60C A65U the self-cleavage was 0.08.
For G30U C40A C44A A45C A65G U72C, the self-cleavage was 0.07.
Work on G30U C40U U72A yielded a self-cleavage of 0.11.
For G30U C44G U66C, the self-cleavage was 0.12.
In the case of G30U G42C U49C G52A, the self-cleavage is reported as 0.2.
G30U U41A U48C G55A showed a self-cleavage of 0.18.
In the case of G30U U41C A45U U54G C62U A64U, the self-cleavage is reported as 0.1.
In the case of G30U U41C C50U U78C, the self-cleavage is reported as 0.17.
For G30U U41C U49A U67C U80C, the self-cleavage was 0.24.
G30U U49C A57G U58C A65G gave a self-cleavage of 0.12.
With G30U U51A A57G U72C the self-cleavage was 0.07.
Variant G30U U51C U76A has a self-cleavage of 0.21.
For G30U U76C A77G, the self-cleavage was 0.11.
Work on U31A A35C U67C A77G yielded a self-cleavage of 0.12.
For U31A A35C U72A, the self-cleavage was 0.45.
Variant U31A A35G A45C U78A has a self-cleavage of 0.54.
In the case of U31A A35G A45G U80C, the self-cleavage is reported as 1.15.
U31A A35G A45U U51A A56U C81U gave a self-cleavage of 0.26.
In the case of U31A A35G A64C U72G, the self-cleavage is reported as 0.23.
For U31A A35G C40A U51A, the self-cleavage was 0.16.
Variant U31A A35G C40G U43C U69C U80C has a self-cleavage of 0.07.
In the case of U31A A35G G63A U69C U76A, the self-cleavage is reported as 0.89.
For U31A A35G U51A, the self-cleavage was 1.27.
In the case of U31A A35G U69C, the self-cleavage is reported as 0.76.
For U31A A35U A45G, the self-cleavage was 0.08.
Variant U31A A35U A45G U54C has a self-cleavage of 0.11.
Variant U31A A35U A45G U60C U72C has a self-cleavage of 0.22.
Variant U31A A35U G53A A64G has a self-cleavage of 0.25.
U31A A35U U54C A75U gave a self-cleavage of 0.31.
U31A A35U U58C U60C U69A gave a self-cleavage of 0.07.
With U31A A45G A56U U80C the self-cleavage was 0.22.
In the case of U31A A45G U51C A64G, the self-cleavage is reported as 0.16.
For U31A A45G U67C, the self-cleavage was 0.08.
With U31A A47C U49C A64G G73A the self-cleavage was 0.08.
U31A A47G A57G showed a self-cleavage of 0.4.
Variant U31A A47G C71A U80C has a self-cleavage of 0.15.
With U31A A47G U69A the self-cleavage was 0.1.
Work on U31A A47U U66C C71U yielded a self-cleavage of 0.16.
With U31A A47U U74C the self-cleavage was 0.7.
With U31A A56G U60C the self-cleavage was 0.23.
Variant U31A A56U A64U has a self-cleavage of 0.11.
In the case of U31A A56U U58A U72G U78C, the self-cleavage is reported as 0.1.
U31A A57G A65U U78A U80A gave a self-cleavage of 0.11.
U31A A64G U74G showed a self-cleavage of 0.85.
Work on U31A A64G U80C yielded a self-cleavage of 0.41.
In the case of U31A A64U A77G, the self-cleavage is reported as 0.09.
In the case of U31A A65G U67C G73U U78C, the self-cleavage is reported as 0.09.
U31A C32A A64G C81A showed a self-cleavage of 0.07.
Variant U31A C32A C34U U41G has a self-cleavage of 0.1.
With U31A C32U A64G the self-cleavage was 0.44.
With U31A C32U U66A A77G the self-cleavage was 0.1.
Variant U31A C32U U69C has a self-cleavage of 0.37.
For U31A C34A U54C A56U U58C, the self-cleavage was 0.16.
For U31A C34G A56U, the self-cleavage was 0.12.
Work on U31A C34U U41A A64U yielded a self-cleavage of 0.09.
U31A C34U U51A gave a self-cleavage of 0.59.
With U31A C37A A47G A56G A64U A75C U80C the self-cleavage was 0.09.
U31A C37U U49C U72A U78C showed a self-cleavage of 0.06.
Variant U31A C38U C39A U69C has a self-cleavage of 0.18.
U31A C39G A47U U58A A77U gave a self-cleavage of 0.06.
With U31A C39G C40U A64G U69G the self-cleavage was 0.07.
In the case of U31A C44U A45G A57C, the self-cleavage is reported as 0.07.
U31A C50U C62U gave a self-cleavage of 0.19.
Variant U31A C59A G61A has a self-cleavage of 0.12.
With U31A G33A A45U the self-cleavage was 0.16.
For U31A G33A U51A U78A, the self-cleavage was 0.18.
With U31A G36A U60C U72C the self-cleavage was 0.16.
U31A G36U U41C U54C U60G U80C gave a self-cleavage of 0.09.
For U31A G36U U51C U60C, the self-cleavage was 0.08.
In the case of U31A G42A G53C U72C U80C, the self-cleavage is reported as 0.28.
Work on U31A G42A U48C U51C U74A yielded a self-cleavage of 0.08.
U31A G46U U54C U58A U72C gave a self-cleavage of 0.08.
U31A G52C U72C U76C showed a self-cleavage of 0.92.
Work on U31A G53A A65U yielded a self-cleavage of 0.18.
Variant U31A U41A U49C U72C has a self-cleavage of 0.16.
U31A U41A U54C gave a self-cleavage of 0.17.
U31A U41A U60C showed a self-cleavage of 0.19.
U31A U41C A45G showed a self-cleavage of 0.36.
For U31A U41C A56G U76C U78A, the self-cleavage was 0.3.
In the case of U31A U41C G53A, the self-cleavage is reported as 0.32.
U31A U41C U48C U58C U67G showed a self-cleavage of 0.03.
U31A U41C U51C showed a self-cleavage of 0.29.
With U31A U41C U54C A77G the self-cleavage was 0.58.
For U31A U41C U66C, the self-cleavage was 0.68.
For U31A U41G A45G, the self-cleavage was 0.13.
Variant U31A U41G U48C U67C has a self-cleavage of 0.05.
